Assay results as given in paper PMC4336329 (PLoS ONE, 2015).
Among all 310,000 compounds or so, about 2,200 (0.71%) showed an effect of 50% or more. Effects have a minus sign here. Some of the results follow.

Each molecule was assayed against human ether-à-go-go-related gene (hERG) potassium channel (human, UniProt Q12809) (assay: primary screen, population patch clamp on CHO cells stably expressing hERG).
human ether-à-go-go-related gene (hERG) potassium channel, sequence (Q12809 whole entry, looked up): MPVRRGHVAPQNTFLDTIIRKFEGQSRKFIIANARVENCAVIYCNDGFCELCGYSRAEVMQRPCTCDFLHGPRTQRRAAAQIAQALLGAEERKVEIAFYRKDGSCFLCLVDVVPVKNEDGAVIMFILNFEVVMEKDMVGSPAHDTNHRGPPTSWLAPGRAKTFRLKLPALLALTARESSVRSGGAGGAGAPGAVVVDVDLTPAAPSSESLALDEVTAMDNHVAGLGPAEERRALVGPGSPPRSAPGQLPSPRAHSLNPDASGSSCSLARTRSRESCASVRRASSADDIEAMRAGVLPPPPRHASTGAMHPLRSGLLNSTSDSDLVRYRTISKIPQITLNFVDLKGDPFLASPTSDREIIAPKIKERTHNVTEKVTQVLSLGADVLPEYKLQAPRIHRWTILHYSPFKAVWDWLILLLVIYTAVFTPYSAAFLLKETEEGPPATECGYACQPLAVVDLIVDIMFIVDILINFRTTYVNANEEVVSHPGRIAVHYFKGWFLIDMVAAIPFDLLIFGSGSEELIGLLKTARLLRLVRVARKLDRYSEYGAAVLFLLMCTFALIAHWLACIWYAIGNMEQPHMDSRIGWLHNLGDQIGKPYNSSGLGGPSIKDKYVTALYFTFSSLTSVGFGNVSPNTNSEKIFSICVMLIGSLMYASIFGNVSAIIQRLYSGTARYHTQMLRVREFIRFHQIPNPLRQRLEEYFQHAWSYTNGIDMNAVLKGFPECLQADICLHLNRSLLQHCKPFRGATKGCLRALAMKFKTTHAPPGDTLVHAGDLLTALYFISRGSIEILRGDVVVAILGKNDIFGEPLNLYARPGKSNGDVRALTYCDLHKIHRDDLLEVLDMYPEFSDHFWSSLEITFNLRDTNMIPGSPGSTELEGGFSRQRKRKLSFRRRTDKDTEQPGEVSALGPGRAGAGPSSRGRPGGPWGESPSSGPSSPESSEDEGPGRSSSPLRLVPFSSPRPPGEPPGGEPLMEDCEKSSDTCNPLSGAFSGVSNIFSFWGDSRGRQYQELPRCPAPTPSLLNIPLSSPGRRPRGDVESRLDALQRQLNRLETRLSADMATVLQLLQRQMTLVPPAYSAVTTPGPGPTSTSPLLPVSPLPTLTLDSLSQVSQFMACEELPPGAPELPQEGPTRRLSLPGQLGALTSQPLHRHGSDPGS

SMILES | hERG current change (%, negative = inhibition) at 1uM [%]
Cc1ccc(CN2CCSc3ccc(C(=O)NC4CCCC4)cc32)cc1 | 9.08
CC(=O)NS(=O)(=O)c1cccnc1Nc1ccc(Cl)cc1 | 12
O=C(N/N=C/c1cccc2ccccc12)c1cccnc1 | 2.57
CC(=C/c1ccco1)/C=N/NC(=O)CSc1nnc(SCc2ccc(C)cc2)s1 | 2.07
COc1ccc(NC(=O)COCC(=O)Nc2ccc(C)cc2)cc1 | 5.63
O=C(c1cc(-c2ccncc2)nc2ccc(Br)cc12)N1CCN(Cc2ccc3c(c2)OCO3)CC1 | -11.5
CC(C)CCn1c(CN2CCN(Cc3ccccc3)CC2)nc2c1c(=O)[nH]c(=O)n2C | -2.51
Cc1cc(-c2nnc(CCC(=O)NC(C)(C)C34CC5CC(CC(C5)C3)C4)o2)no1 | 9.18
COc1cc(=O)[nH]c(SC(C)C(=O)Nc2cc(C)on2)n1 (stereo not shown) | 16.7
COc1ccc(NC(=O)CCn2ccnc2)c(OC)c1 | 9.53
Cl.O=C(O)C1=CCCNC1 | -30.7
O=C(N/N=C/c1ccncc1)C1CC1C(=O)N/N=C/c1ccncc1 (stereo not shown) | 12.5
CCCS(=O)(=O)c1c(S(=O)(=O)CCC)c2ccc(C(N)=O)cn2c1C(=O)c1ccc(F)cc1 | 6.39
Cn1ncc(C#N)c1NC(=O)c1nn2cccnc2c1Cl | 16.8
COCCCNC(=S)Nc1ccc(OC(F)F)cc1C | 8.72
COCCN(C(=O)c1snc(C(N)=O)c1N)C(C(=O)NC1CCCCC1)c1ccc(OC)c(OC)c1 (stereo not shown) | 13.9
CC(C)NS(=O)(=O)c1ccc(NC(=S)NC(=O)c2ccc(-c3ccccc3)cc2)cc1 | -2.44
CC(C)C(=O)Nc1ccc(-c2nc3ccccc3c(=O)o2)cc1 | 16.3
COc1ccc(-c2cc(-c3ccccc3)c(C#N)c(SCC(=O)O)n2)cc1 | 11.3
Cc1ccc(F)cc1NC(=O)c1sc2ncn(CC(=O)N3CCN(c4ccccn4)CC3)c(=O)c2c1C | -15
Cc1ccc(C(=O)OCC(=O)NNC(=O)c2ccccc2)c(O)c1 | -6.96
C=CCn1c(O)c(C(CC)=NCCC2=CCCCC2)c(=O)[nH]c1=O | 5.33
COc1cc(-c2nnc(COC(=O)CSCC(=O)Nc3cc(C)on3)o2)cc(OC)c1OC | 7.66
Cc1cc(C)c(S(=O)(=O)c2c(C)cccc2C)c(Cl)n1 | 9
CCCCC(CC)CNC(=O)CCS(=O)(=O)c1cccc2nonc12 (stereo not shown) | 11.9
CCN(CC)C(=O)C12CC3CC(CC(Br)(C3)C1)C2 | 12.5
Cc1ccccc1OCC(=O)NC(=S)Nc1ccc(Br)c(C)n1 | 10.2
CCN(CC)c1ccc2c(Cl)cc(=O)oc2c1 | 2.38

SMILES | hERG current change (%, negative = inhibition) at 1uM [%]
CCOC(=O)c1cnc(SCC(=O)Nc2ccccc2C(=O)OC)nc1N | -10
CCN(CC)c1ccc(NC(=O)/C=C/c2cc(Br)ccc2OC)cc1 | 8.46
CN(CC(=O)Nc1ccccc1C(F)(F)F)C(=O)CSCc1ccc(Cl)c(Cl)c1 | 5.95
CCOc1ccccc1C(=O)Nc1cccc2cccnc12 | 10.1
CN(C)C(=O)c1ccc(NC(=O)CSc2nnc(-c3cccs3)n2N)cc1 | 8.44
O=C(CN(CCO)c1ccccc1)Nc1cccc(S(=O)(=O)N2CCCC2)c1 | 0.847
CC(C)(/C=N/NC(=O)CSCc1ccc(Cl)cc1)CCC#N | 8.92
COc1ccc(-n2c3c(cc(C(=O)N4CCN(CCO)CC4)c2=O)C(=O)CC(C)(C)C3)cc1 | -2.36
CSc1ccccc1NC(=O)c1ccc(N2CC3CC(C2)c2cccc(=O)n2C3)c(NC(=O)c2cccnc2)c1 (stereo not shown) | 8.01
CCC1S/C(=N/N=C/c2ccco2)N(Cc2ccccc2C)C1=O (stereo not shown) | 8.54
COc1cccc2c1Oc1ncccc1N(C(=O)CCC(=O)NCc1ccc(C)cc1)C2 | 9.31
Cc1nnc(NC(=O)C2CC(=O)N(c3ccccc3)C2)s1 (stereo not shown) | 6.15
COc1ccc(S(=O)(=O)Nc2cc3c4c(oc3c3ccccc23)CC(C)(C)CC4=O)cc1 | 1.84
Cc1cc(C)n2nc(C(=O)N/N=C/c3ccc(Cl)cc3)nc2n1 | 1.32
CC1=NN(/C(=N\c2nnc(C)s2)Nc2ccc(C(C)(C)C)cc2)[C@H](c2ccc(C)cc2)S1 | 5.66
CC1C(=O)Nc2ccc(S(=O)(=O)N3CCN(c4cccc(C(F)(F)F)c4)CC3)cc2NC1=O (stereo not shown) | 10.5
CCOc1ccccc1NC(=O)c1sc2ncn(CC(=O)N3CCOCC3)c(=O)c2c1C | 6.87
CC(C)Cc1nnc(NC(=O)CN2C(=O)c3ccccc3C2=O)s1 | 14.7
CCOC(=O)C1=C(C)N(C)C(=O)NC1c1c(C)nn(-c2ccccc2)c1C (stereo not shown) | 15.7
O=C(C(=O)c1cccnc1)c1cccnc1 | 16.6
Cc1ccc(SCCC(=O)NCc2ccccn2)cc1 | -9.13
Cc1ccccc1NC(=O)c1sc(NC(=O)C2CC2)nc1C | 10
CCCN1C(=O)c2ccc(C(=O)Nc3ccccc3C(=O)O)cc2C1=O | 18
COc1ccc(-c2n[nH]c3c2C(c2ccc(OC)c(OC)c2)N(c2ccccc2)C3=O)cc1 (stereo not shown) | 11.2
Cc1cc(C(=O)Nc2ccc(C)c(S(=O)(=O)N3CCOCC3)c2)c2ccccc2n1 | 3.69
NS(=O)(=O)c1cc(C(=O)OCC(=O)c2ccc3c(c2)OCCO3)ccc1Cl | 7.09
O=c1c(-c2ccnn2-c2cccc(Cl)c2)cnc2n1CCS2 | 14.2
